# Publication PMC4336329 (PLoS ONE, 2015)
# Out of some 310,000 compounds screened, about 2,200 (0.71%) showed an effect of 50% or more. Effects have a minus sign here. The list shows a part of the results.
# Molecular target: human ether-à-go-go-related gene (hERG) potassium channel (human, UniProt Q12809)
# Assay: primary screen, population patch clamp on CHO cells stably expressing hERG
# Chain of human ether-à-go-go-related gene (hERG) potassium channel (Q12809 whole entry, looked up): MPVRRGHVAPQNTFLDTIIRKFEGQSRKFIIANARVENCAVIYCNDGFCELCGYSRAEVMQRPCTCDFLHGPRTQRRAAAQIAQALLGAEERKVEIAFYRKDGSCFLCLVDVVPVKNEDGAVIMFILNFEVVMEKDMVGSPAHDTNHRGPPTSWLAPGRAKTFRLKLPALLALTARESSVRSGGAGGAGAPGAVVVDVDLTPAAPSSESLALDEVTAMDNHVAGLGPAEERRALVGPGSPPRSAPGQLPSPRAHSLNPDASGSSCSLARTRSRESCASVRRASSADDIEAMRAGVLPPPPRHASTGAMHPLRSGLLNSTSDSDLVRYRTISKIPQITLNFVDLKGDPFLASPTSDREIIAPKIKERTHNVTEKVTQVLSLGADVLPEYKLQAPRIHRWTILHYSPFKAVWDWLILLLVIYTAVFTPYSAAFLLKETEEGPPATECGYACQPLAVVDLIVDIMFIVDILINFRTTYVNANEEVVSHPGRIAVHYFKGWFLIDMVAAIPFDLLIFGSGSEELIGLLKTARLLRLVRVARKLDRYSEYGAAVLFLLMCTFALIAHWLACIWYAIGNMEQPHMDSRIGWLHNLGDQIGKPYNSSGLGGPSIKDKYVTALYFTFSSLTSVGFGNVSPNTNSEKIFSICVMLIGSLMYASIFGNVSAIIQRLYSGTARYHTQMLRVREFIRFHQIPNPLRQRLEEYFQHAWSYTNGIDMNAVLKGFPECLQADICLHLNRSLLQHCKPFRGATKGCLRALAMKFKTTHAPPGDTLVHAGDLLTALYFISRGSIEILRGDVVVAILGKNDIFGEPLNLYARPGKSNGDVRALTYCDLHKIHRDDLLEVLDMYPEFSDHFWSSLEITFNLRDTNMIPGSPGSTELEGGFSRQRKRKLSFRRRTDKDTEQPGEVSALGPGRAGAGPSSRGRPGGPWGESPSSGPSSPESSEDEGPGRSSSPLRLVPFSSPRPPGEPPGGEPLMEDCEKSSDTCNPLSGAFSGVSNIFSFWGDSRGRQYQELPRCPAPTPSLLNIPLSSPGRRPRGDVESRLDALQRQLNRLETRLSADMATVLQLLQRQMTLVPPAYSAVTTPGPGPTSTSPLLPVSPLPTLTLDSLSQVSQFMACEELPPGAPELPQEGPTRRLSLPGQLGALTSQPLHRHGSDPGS
row,Compound,"hERG current change (%, negative = inhibition) at 1uM [%]"
1,FC(F)(F)C(Oc1nc(Nc2ccc(Cl)cc2)nc(N2CCOCC2)n1)C(F)(F)F,11.9
2,O=C(NC(=S)NC1CCCC1)c1ccccc1,8.04
3,O=C(c1cccc(F)c1)N1CCN(c2cccc(C(F)(F)F)c2)CC1,3
4,Cc1ccc(C(NC(=O)NCCCN2CCOCC2)=C(Cl)Cl)cc1F,5.09
5,Cc1oc2c(C)c(O)ccc2c(=O)c1-c1nncn1-c1ccccc1,13.8
6,COc1ccccc1CNC(=O)COc1ccccc1OC,7.74
7,Cc1nc2c(c(C)nn2-c2ccccc2)c(C)c1Cl,7.19
8,COc1ccc(/C=N/Nc2nccnc2Cl)cc1,0.804
9,CS(=O)(=O)Nc1cccc(C2=NN(C(=O)c3ccco3)C(c3ccco3)C2)c1 (centres unmarked),0.506
10,CCOCc1nnc(NC(=O)c2cc(Cl)ccc2OC)s1,2.17
11,O=C(NCCc1cccc(Cl)c1)c1cccnc1,3.74
12,CC(C)(CO)Nc1nc(Cl)nc(NC2CCCCC2)n1,9.48
13,Cc1c(C(=O)C(=O)N2CCN(Cc3ccc4c(c3)OCO4)CC2)c2ccccc2n1C,12.5
14,Cc1cccc(-n2ncc3c2CCCC3NC(=O)CC(F)(F)F)c1C (centres unmarked),7.67
15,O=C1Nc2ccccc2C12OCC1(CO2)COC2(OC1)C(=O)Nc1ccccc12 (centres unmarked),9.99
16,O=C(CSc1nnc2c(n1)[nH]c1ccccc12)NCc1ccco1,5.94
17,C=CCN1C(=O)CSc2ccc(C(=O)NCc3ccco3)cc21,-3.06
18,O=C(COc1ccc(Nc2ccccc2)cc1)Nc1ccncc1,1.07
19,CCc1nnc2c(N(C)C)nc3ccccc3n12,-1.42
20,CC(=O)Nc1ccc2c(c1)nc1n2CCOC1,-0.134
21,S=C(NCCc1ccncc1)Nc1ccccc1,17.2
22,CCC(Oc1cccc(Cl)c1)C(=O)N1CCCN(C)CC1 (centres unmarked),15.7
23,CN1CCN(/C=N/c2c(C#N)cnn2C)CC1,5.43

row,Compound,"hERG current change (%, negative = inhibition) at 1uM [%]"
1,O=[N+]([O-])c1ccc(N2CCCCCC2)c([N+](=O)[O-])c1,4.86
2,O=C(Nc1ccc(Cl)c(Cl)c1)C1C2C=CC3(O2)C1C(=O)N(CCN1CCCCC1)C3C(=O)NC1CCCCC1 (centres unmarked),-16
3,COc1cc(C2SCC(=O)Nc3c2c(C)nn3-c2ccccc2)cc(OC)c1OC (centres unmarked),2.47
4,COc1ccc(S(=O)(=O)Nc2ccc3c(c2)n(C)c(=O)n3C)cc1OC,12.8
5,CC(C(=O)Nc1ccc(F)c(F)c1F)N(C)CC(=O)Nc1ccccc1Br (centres unmarked),9.69
6,Cc1ccc(CNC(=O)CS(=O)(=O)c2cn(CC(=O)N3CCOCC3)c3ccccc23)cc1,2.47
7,COc1cccc(-c2cc(C(=O)NCCCn3ccnc3)c3ccccc3n2)c1,-43
8,Cc1ccc(N(C(=O)Cn2nnc(-c3cccs3)n2)C(C(=O)NC2CCCC2)c2ccncc2)cc1 (centres unmarked),4.01
9,COc1ccc(OCC(=O)N/N=C(\C)c2cc3ccccc3o2)cc1,-17
10,Cn1c(CNC(=O)c2ccccc2F)nnc1SCC(=O)N1CCN(c2ccccc2)CC1,13.6
11,Cc1cc(NS(=O)(=O)c2ccc(OCCNS(C)(=O)=O)cc2)no1,10.7
12,CC1(C)CC(=O)c2cc(C(=O)N3CCN(CCO)CC3)c(=O)n(-c3ccc(Cl)cc3)c2C1,9.89
13,Cc1c(C(=O)O)sc2nc(/C=C/c3cccc(F)c3)[nH]c(=O)c12,12.3
14,O=C(N/N=C/c1cccnc1)C1CCCN(S(=O)(=O)c2ccccc2)C1 (centres unmarked),5.81
15,Cc1ccc(C)c(N(C(=O)CS(=O)CC(=O)Nc2ccc3c(c2)OCO3)C(C)C(=O)NC2CCCC2)c1 (centres unmarked),-12.2
16,O=C(Oc1ccc2c3c(c(=O)oc2c1)CCCC3)c1ccco1,11
17,CC1CCCC(NS(=O)(=O)c2cc3c(cc2Cl)NC(=O)CO3)C1C (centres unmarked),2.9
18,Cc1sc2ncn(CC(=O)NCC(=O)N3CCC4(CC3)OCCO4)c(=O)c2c1C,7.59
19,COc1ccc(S(=O)(=O)N2CCOC2CNC(=O)C(=O)NCc2ccc(F)cc2)cc1 (centres unmarked),-4.78
20,Cn1cccc1/C=C1\SC(=S)N(NC(=O)c2ccccc2)C1=O,11.8
21,COc1cc(/C=C2/CCc3ccccc3C2=O)cc(OC)c1OC,5.04
22,Cc1ccnc(NS(=O)(=O)c2ccc(NC(=O)c3cc(=O)c4ccccc4o3)cc2)n1,17
23,C/C(=N\NC(=O)C1CC1)c1ccc(C(C)(C)C)cc1,9.99

row,Compound,"hERG current change (%, negative = inhibition) at 1uM [%]"
1,Cc1cc(C)cc(-n2ncc3c2CCCC3NC(=O)C2CCC2)c1 (centres unmarked),-42.9
2,CC1CCN(S(=O)(=O)c2ccc(S(=O)(=O)NCc3cccnc3)cc2)CC1,15.1
3,CC(C)Oc1ccc(C(CC(=O)N2CCOCC2)C(C)C)cc1 (centres unmarked),6.27
4,C[C@H](NC(=O)c1nc[nH]c1C(=O)N1CC[NH2+]CC1)C(=O)OC(C)(C)C.[Cl-],10.2
5,Cc1ccc(NC(=O)CN2CCC(C(=O)c3ccc(F)cc3)CC2)cc1,-50.1
6,O=C(NCc1cccnc1)C(=O)NCC(c1ccco1)N1CCN(c2ccc(F)cc2)CC1 (centres unmarked),10.5
7,Cc1ccc2oc(=O)cc(CN3CCC(C)CC3)c2c1,16
8,CCN(CC)C(=O)CCCc1c[nH]c2ccccc12,15.7
9,COC(=O)CSc1nc(N)nc(C)c1Cl,-3.41
10,Cc1nnc(NC(=O)c2ccco2)s1,6.67
11,O=C(CCCN1C(=O)/C(=C/c2cccs2)SC1=S)Nc1cccc(O)c1,14.3
12,O=C(NCc1ccco1)c1cnn2c(C(F)(F)F)cc(-c3cccs3)nc12,9.4
13,C/C(=N\NC(=O)c1ccccc1)c1c(C)[nH]n(-c2ccccc2)c1=O,19.3
14,Nc1nc(-c2ccc(Cl)cc2Cl)cn1N,0.323
15,CCc1ccc(NC(=O)c2ccnc(C(C)(C)C)c2)cc1,-0.23
16,Fc1ccc(Br)cc1/C=N/N1CCN(c2ccccc2)CC1,17.1
17,Cc1ccc(CC(=O)Nc2cc(C)ccn2)cc1,12.9
18,CO[C@@H]1O[C@@H]2COC(c3ccccc3)O[C@@H]2[C@@H](OC)[C@@H]1O (some centres unmarked),19.4
19,O=C1C=CN(Cc2ccccc2)CC1,4.85
20,O=C(O)C1=NOC(CNC(=O)c2ccccc2Cl)C1 (centres unmarked),21.3
21,O=C(Cn1cnc2c(oc3ccccc32)c1=O)N1CCCc2ccccc21,4.77
22,Cc1cc(=O)oc2cc(OCC(=O)N/N=C/c3ccccc3[N+](=O)[O-])ccc12,-8.29
23,Cc1noc(/C=C/c2ccco2)c1S(=O)(=O)N1CCC(C(=O)N2c3ccccc3CC2C)CC1 (centres unmarked),-0.434

row,Compound,"hERG current change (%, negative = inhibition) at 1uM [%]"
1,CCOc1ccccc1NC1=NC2CS(=O)(=O)CC2S1 (centres unmarked),18.9
2,COc1ccc2nc(Nc3nc(CSc4nc5ccccc5s4)cc(=O)[nH]3)nc(C)c2c1,5.49
3,O=C(CN1C(=O)COc2ccccc21)N1CCOCC1,8.59
4,CN1/C(=C\C(=O)COC(=O)c2ccccc2O)C(C)(C)c2ccccc21,6.85
5,Cc1ccc(CNC(=O)CC(C)S(=O)(=O)c2ccc3c(c2)NC(=O)CO3)cc1 (centres unmarked),-11
6,CS(=O)(=O)N(CC(=O)NCCSCc1cccc(Cl)c1)c1ccccc1F,2.83
7,COc1ccc(Cl)cc1-n1c(=S)sc2c(=O)n(-c3ccc(F)cc3)c(SCC(=O)O)nc21,1.64
8,COc1ccc(C2CC(=O)c3cnc(NC(=O)c4cc(OC)cc(OC)c4)nc3C2)cc1 (centres unmarked),12.7
9,COc1ccc(OCC(=O)N(C)Cc2ccccc2)cc1,7.11
10,O=C(Nc1ccnn1C1CCN(C(=O)c2cnsn2)CC1)c1cccc(F)c1,8.19
11,COC(=O)c1ccc2c(=O)[nH]c(CN3c4ccccc4CC3C)nc2c1 (centres unmarked),3.34
12,Cc1cc(C)nc(SCC(=O)c2ccc(Cl)cc2)n1,14.9
13,O=C(COc1ccccc1Cl)NCC(c1cccs1)N1CCOCC1 (centres unmarked),2.47
14,CC(=O)c1ccccc1OCC(O)CN1CCN(C(c2ccccc2)c2ccccc2)CC1 (centres unmarked),-15.6
15,O=C(COC(=O)c1ccco1)c1ccc2ccccc2c1,16.3
16,CCn1c(=O)c2sccc2n(CC(=O)NC2CCCC2)c1=O,9.2
17,COC(=O)c1ccc(C)c(NC(=O)CN(c2ccccc2)S(=O)(=O)N(C)C)c1,16.4
18,CCCN(CCC)C(=O)CC(c1ccccc1)c1cc(Br)ccc1O (centres unmarked),11.3
19,NS(=O)(=O)c1ccc(CCNC(=O)COC(=O)/C=C/c2ccc(Cl)cc2)cc1,1.84
20,CCN(CC)S(=O)(=O)c1ccc(C)c(NC(=O)CN2C(=O)NC3(CCCC3)C2=O)c1,13.7
